The record followed here is paper PMC12613146.

The target of the experiment is ectodomain of the epidermal growth factor receptor, EGFR25-645 (human). As to the kind of experiment: SPR; ligand ectodomain immobilised on streptavidin chips, DDM proteomicelles of the membrane protein injected; single-cycle kinetics, nine-point two-fold dilutions, 60 s association; 20 mM Tris-HCl, 300 mM KCl, 1 mg/ml BSA, 0.05% (v/v) Tween 20, 0.2% (w/v) DDM, pH 7.5. (In general: In SPR one partner is held on a chip, and binding of the other changes the refractive index at the surface.)

In general, Kd refers to the concentration at which binding is half-saturated.

Some entries of the source have several records that differ or are many. This list holds those alone. There may be further records. For some assays here: Results that share an entry appear to be repeats (runs, samples, wells or individuals); one of them may be the mean. Some values that stand alone complete this part of the results.

Sequence of TGF-α(GGS)2tFhuA (chain): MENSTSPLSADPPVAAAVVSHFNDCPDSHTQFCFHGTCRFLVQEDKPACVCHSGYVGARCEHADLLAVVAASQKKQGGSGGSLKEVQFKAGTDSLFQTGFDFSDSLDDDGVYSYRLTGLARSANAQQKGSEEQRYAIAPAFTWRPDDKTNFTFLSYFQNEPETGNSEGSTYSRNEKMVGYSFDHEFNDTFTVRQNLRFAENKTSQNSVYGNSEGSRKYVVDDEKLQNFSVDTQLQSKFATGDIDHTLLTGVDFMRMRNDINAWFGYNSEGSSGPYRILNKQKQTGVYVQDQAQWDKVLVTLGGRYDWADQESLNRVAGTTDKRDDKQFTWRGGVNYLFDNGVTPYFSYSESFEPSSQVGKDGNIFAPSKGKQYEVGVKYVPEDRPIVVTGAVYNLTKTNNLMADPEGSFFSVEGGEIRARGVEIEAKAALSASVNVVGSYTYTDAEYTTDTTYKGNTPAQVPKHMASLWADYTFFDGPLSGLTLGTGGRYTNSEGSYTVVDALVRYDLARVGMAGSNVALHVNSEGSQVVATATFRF

In the case of TGF-α(GGS)2tFhuA, the Kd was 14.9 nM, 17.6 nM, 29.4 nM (individual measurement) and 20.6 nM (mean of replicate measurements).
